Laboratory results from publication PMC12820563, “FoxP3 forms a head-to-head dimer in vivo and stabilizes its multimerization on adjacent microsatellites”.
The list shows a part of the results.

These sequences were tested against T1, MBP-FoxP1dN (Mus musculus, UniProt P58462 326-579) (assay: PD-seq (MBP pull-down with sequencing); 20 mM Tris-HCl pH 7.5, 100 mM NaCl, 1.5 mM MgCl2, 0.4 uM protein, 0.1 uM dsDNA library, 30 min, room temperature, amylose pull-down; high values mean tight binding). Details: protein: recombinant; tags: His6-MBP; chain copies: 2; dsDNA, one strand shown.
T1 sequence: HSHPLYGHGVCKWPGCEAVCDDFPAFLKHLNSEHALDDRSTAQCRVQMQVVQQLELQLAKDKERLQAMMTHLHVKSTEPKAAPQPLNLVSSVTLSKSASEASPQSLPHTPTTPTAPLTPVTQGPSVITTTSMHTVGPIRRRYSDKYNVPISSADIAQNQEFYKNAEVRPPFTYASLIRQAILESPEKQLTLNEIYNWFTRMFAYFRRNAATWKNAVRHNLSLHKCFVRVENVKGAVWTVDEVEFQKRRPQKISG
Summary of the method: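 His6-MBP-tagged mouse FoxP3 or FoxP1 fragment lacking the N-terminus, expressed in E. coli, was mixed at 0.4 µM with 0.1 µM Klenow-filled double-stranded degenerate DNA library. Incubation was 30 min at room temperature in Tris pH 7.5 buffer with NaCl and MgCl2. Complexes were caught on amylose resin and washed three times; DNA was released with proteinase K, PCR-barcoded and Illumina-sequenced. Binding is reads-per-million enrichment, pull-down over input, with replicates pooled.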

Sequence | binding signal
GATGATTGTTCTCCCAGCTGATGAATTCCATTCATCGAGTAAACAAATTTTCCTAATCTTTCTGTTCAAGCGCCATCTAC | 0.873 RPM ratio (pull-down/input)
GATGATTGTTCTCCCAGCTGATGAATTCAACAGGTCGAGTAAACAAATTTTCCTAATCTTTCTGTTCAAGCGCCATCTAC | 0.93 RPM ratio (pull-down/input)
GATGATTGTTCTCCCAGCTGATGAATTAATTGATTCGAGTAAACAAATTTTCCTAATCTTTCTGTTCAAGCGCCATCTAC | 1.04 RPM ratio (pull-down/input)
GATGATTGTTCTCCCAGCTGATGAATTCCCCCACTCGAGTAAACAAATTTTCCTAATCTTTCTGTTCAAGCGCCATCTAC | 0.853 RPM ratio (pull-down/input)
GATGATTGTTCTCCCAGCTGATGAATTGCTGTCTTCGAGTAAACAAATTTTCCTAATCTTTCTGTTCAAGCGCCATCTAC | 1.21 RPM ratio (pull-down/input)
GATGATTGTTCTCCCAGCTGATGAATTAGGACGGTCGAGTAAACAAATTTTCCTAATCTTTCTGTTCAAGCGCCATCTAC | 0.825 RPM ratio (pull-down/input)
GATGATTGTTCTCCCAGCTGATGAATTTGTGATTTCGAGTAAACAAATTTTCCTAATCTTTCTGTTCAAGCGCCATCTAC | 1.41 RPM ratio (pull-down/input)
GATGATTGTTCTCCCAGCTGATGAATTTGTATTATCGAGTAAACAAATTTTCCTAATCTTTCTGTTCAAGCGCCATCTAC | 2.13 RPM ratio (pull-down/input)
GATGATTGTTCTCCCAGCTGATGAATTACCCCGCTCGAGTAAACAAATTTTCCTAATCTTTCTGTTCAAGCGCCATCTAC | 0.848 RPM ratio (pull-down/input)
GATGATTGTTCTCCCAGCTGATGAATTATAAGCATCGAGTAAACAAATTTTCCTAATCTTTCTGTTCAAGCGCCATCTAC | 1.33 RPM ratio (pull-down/input)
GATGATTGTTCTCCCAGCTGATGAATTTTTGCGTTCGAGTAAACAAATTTTCCTAATCTTTCTGTTCAAGCGCCATCTAC | 1.08 RPM ratio (pull-down/input)
GATGATTGTTCTCCCAGCTGATGAATTAGGCCCTTCGAGTAAACAAATTTTCCTAATCTTTCTGTTCAAGCGCCATCTAC | 0.851 RPM ratio (pull-down/input)
GATGATTGTTCTCCCAGCTGATGAATTCGTTCTTTCGAGTAAACAAATTTTCCTAATCTTTCTGTTCAAGCGCCATCTAC | 0.832 RPM ratio (pull-down/input)
GATGATTGTTCTCCCAGCTGATGAATTTACGAGCTCGAGTAAACAAATTTTCCTAATCTTTCTGTTCAAGCGCCATCTAC | 1.18 RPM ratio (pull-down/input)
GATGATTGTTCTCCCAGCTGATGAATTTCGTGGATCGAGTAAACAAATTTTCCTAATCTTTCTGTTCAAGCGCCATCTAC | 0.859 RPM ratio (pull-down/input)
GATGATTGTTCTCCCAGCTGATGAATTCTTAAGGTCGAGTAAACAAATTTTCCTAATCTTTCTGTTCAAGCGCCATCTAC | 0.814 RPM ratio (pull-down/input)
GATGATTGTTCTCCCAGCTGATGAATTGGTTCCCTCGAGTAAACAAATTTTCCTAATCTTTCTGTTCAAGCGCCATCTAC | 0.916 RPM ratio (pull-down/input)
GATGATTGTTCTCCCAGCTGATGAATTGTTCCACTCGAGTAAACAAATTTTCCTAATCTTTCTGTTCAAGCGCCATCTAC | 1.12 RPM ratio (pull-down/input)
GATGATTGTTCTCCCAGCTGATGAATTAGGGTGGTCGAGTAAACAAATTTTCCTAATCTTTCTGTTCAAGCGCCATCTAC | 0.854 RPM ratio (pull-down/input)
GATGATTGTTCTCCCAGCTGATGAATTATTAACATCGAGTAAACAAATTTTCCTAATCTTTCTGTTCAAGCGCCATCTAC | 1.32 RPM ratio (pull-down/input)

Sequence | binding signal
GATGATTGTTCTCCCAGCTGATGAATTTGCTACATCGAGTAAACAAATTTTCCTAATCTTTCTGTTCAAGCGCCATCTAC | 1.16 RPM ratio (pull-down/input)
GATGATTGTTCTCCCAGCTGATGAATTGCTTAATTCGAGTAAACAAATTTTCCTAATCTTTCTGTTCAAGCGCCATCTAC | 1.19 RPM ratio (pull-down/input)
GATGATTGTTCTCCCAGCTGATGAATTTATTTCCTCGAGTAAACAAATTTTCCTAATCTTTCTGTTCAAGCGCCATCTAC | 1.3 RPM ratio (pull-down/input)
GATGATTGTTCTCCCAGCTGATGAATTAGTATCCTCGAGTAAACAAATTTTCCTAATCTTTCTGTTCAAGCGCCATCTAC | 1.07 RPM ratio (pull-down/input)
GATGATTGTTCTCCCAGCTGATGAATTTTTTCACTCGAGTAAACAAATTTTCCTAATCTTTCTGTTCAAGCGCCATCTAC | 0.964 RPM ratio (pull-down/input)
GATGATTGTTCTCCCAGCTGATGAATTAAGCTGGTCGAGTAAACAAATTTTCCTAATCTTTCTGTTCAAGCGCCATCTAC | 0.842 RPM ratio (pull-down/input)
GATGATTGTTCTCCCAGCTGATGAATTTATATGGTCGAGTAAACAAATTTTCCTAATCTTTCTGTTCAAGCGCCATCTAC | 1.15 RPM ratio (pull-down/input)
GATGATTGTTCTCCCAGCTGATGAATTCGAATACTCGAGTAAACAAATTTTCCTAATCTTTCTGTTCAAGCGCCATCTAC | 0.906 RPM ratio (pull-down/input)
GATGATTGTTCTCCCAGCTGATGAATTTGTCTACTCGAGTAAACAAATTTTCCTAATCTTTCTGTTCAAGCGCCATCTAC | 1.24 RPM ratio (pull-down/input)
GATGATTGTTCTCCCAGCTGATGAATTTAAGTTATCGAGTAAACAAATTTTCCTAATCTTTCTGTTCAAGCGCCATCTAC | 1.1 RPM ratio (pull-down/input)
GATGATTGTTCTCCCAGCTGATGAATTTGAAACGTCGAGTAAACAAATTTTCCTAATCTTTCTGTTCAAGCGCCATCTAC | 0.869 RPM ratio (pull-down/input)
GATGATTGTTCTCCCAGCTGATGAATTGTTCCATTCGAGTAAACAAATTTTCCTAATCTTTCTGTTCAAGCGCCATCTAC | 1.21 RPM ratio (pull-down/input)
GATGATTGTTCTCCCAGCTGATGAATTGTGCATGTCGAGTAAACAAATTTTCCTAATCTTTCTGTTCAAGCGCCATCTAC | 1.2 RPM ratio (pull-down/input)
GATGATTGTTCTCCCAGCTGATGAATTTAATTGATCGAGTAAACAAATTTTCCTAATCTTTCTGTTCAAGCGCCATCTAC | 1.08 RPM ratio (pull-down/input)
GATGATTGTTCTCCCAGCTGATGAATTGCGTTTCTCGAGTAAACAAATTTTCCTAATCTTTCTGTTCAAGCGCCATCTAC | 1.2 RPM ratio (pull-down/input)
GATGATTGTTCTCCCAGCTGATGAATTACACATTTCGAGTAAACAAATTTTCCTAATCTTTCTGTTCAAGCGCCATCTAC | 1.46 RPM ratio (pull-down/input)
GATGATTGTTCTCCCAGCTGATGAATTTACTAGTTCGAGTAAACAAATTTTCCTAATCTTTCTGTTCAAGCGCCATCTAC | 1.39 RPM ratio (pull-down/input)
GATGATTGTTCTCCCAGCTGATGAATTGTGTAACTCGAGTAAACAAATTTTCCTAATCTTTCTGTTCAAGCGCCATCTAC | 1.19 RPM ratio (pull-down/input)
GATGATTGTTCTCCCAGCTGATGAATTAGGTGACTCGAGTAAACAAATTTTCCTAATCTTTCTGTTCAAGCGCCATCTAC | 0.926 RPM ratio (pull-down/input)
GATGATTGTTCTCCCAGCTGATGAATTCCTTTTCTCGAGTAAACAAATTTTCCTAATCTTTCTGTTCAAGCGCCATCTAC | 0.874 RPM ratio (pull-down/input)
